From PubChem BioAssay (Tox21)
This list was built around the results that the source calls inconclusive (neither active nor inactive); the mix of calls is not that of the screen. Potencies beside an inconclusive call are fits to weak or partial responses and may not hold up. The source made the active and inactive calls. Calls come from the whole dose curve; as a rule, active = well fitted activation curve with a large enough effect in the repeat runs; inconclusive = weak or mixed curves; inactive = flat fitted curve, though single readings scatter.

Experiment: A CellTox Green Cytotoxicity Assay to monitor cytotoxicity in HepG2 cells - 32 hour (AID 1224883); note: nearly all actives have a fitted effect of over 50% in size
Details: CellTox Green fluorescence; series mostly up to 76.8 µM; cytotoxicity increase: at the top concentration
Text: National Center for Advancing Translational Sciences [NCATS]
NIH Chemical Genomics Center [NCGC]
U.S. Environmental Protection Agency [EPA]
National Institutes of Environmental Health Sciences [NIEHS]
National Toxicology Program [NTP]
Cell-based models are critical for drug discovery. Determining the natural cytotoxic effects resulting from test compounds is an essential research activity. A CellTox Green Cytotoxicity Assay to monitor cytotoxicity in real time of continues cell culture during 40 hours of the compound treatment was used to screen Tox21 10K library compounds in HepG2 cells. CellTox Green Cytotoxicity Assay is a nonlytic, homogeneous, biofluorescent method to measure cytotoxicity in cell culture after experimental manipulation. The assay system uses a proprietary asymmetric cyanine dye that is excluded from viable cells but preferentially stains the dead cell's DNA. […] Viable cells produce no appreciable increases in fluorescence. Therefore, the fluorescence signal produced by the binding interaction with dead cell DNA is proportional to cytotoxicity.
The mixture of HepG2 cell suspension and reagents were dispensed at 600cells/6 ul/well in 1536-well tissue culture treated black solid bottom plates using a Multidrop dispenser. After the assay plates were incubated at a 37 C/5% CO2 incubator for 5 hours, 23 nL of compounds dissolved in DMSO, positive and negative controls was transferred to the assay plate by a pintool work station. The plates were incubated at 37 C for 40 hours. The fluorescence intensity were measured at 0h, 8h, 16h, 24h, 32h and 40h time points using ViewLux plate reader during compound treatment.
% is set by controls: 0 for no effect and ±100 for the full control effect; potency is the fitted concentration of half-maximal effect; tags give direction and shape of the fitted curve.

Row | SMILES | Potency | cytotoxicity increase
1 | c1ccc(CN(Cc2ccccc2)Cc2ccccc2)cc1 | inconclusive: 19.5 µM [activator, single point] | 
2 | O=C1C(CCS(=O)c2ccccc2)C(=O)N(c2ccccc2)N1c1ccccc1 (stereo not given) |  | inactive: 1.25% [at 35.3 µM]
3 | CCCCCC1C(=O)CCC1CC(=O)OC (stereo not given) | inconclusive: 21.9 µM [activator, partial curve, poor fit] | 
4 | CC(C)(C)[C@@H](O)[C@@H](Cc1ccc(Cl)cc1)n1cncn1 | inconclusive: 54.9 µM [activator, single point] | 
5 | CSc1ccc(Cl)cc1 | inconclusive: 24.5 µM [activator, single point] | 
6 | CNNCc1ccc(C(=O)NC(C)C)cc1 | inconclusive: 21.3 µM [activator, partial curve] | 
7 | O=C(N[C@@H](Cc1ccccc1)[C@@H](O)C(=O)N1C[C@@H](O)[C@@H](O)C1)c1cc2cc(Cl)ccc2[nH]1 | inconclusive: 19.5 µM [activator, full curve, poor fit] | 
8 | CC(C)c1cccc(O)c1 | inconclusive: 64.9 µM [activator, single point] | 
9 | Nc1cc(S(=O)(=O)O)ccc1O |  | inactive: 2.48%
10 | CC(C)(C)c1cc(CCC(=O)NN)cc(C(C)(C)C)c1O | inconclusive: 54.9 µM [activator, single point] | 
11 | CCN(Cc1ccccc1)c1ccccc1 |  | inactive: -0.0345%
12 | Cc1c(-c2ccccc2)oc2c(C(=O)OCCN3CCCCC3)cccc2c1=O |  | inactive: 10.4% [at 35.3 µM]
13 | C[C@@H](O)[C@H]1C(=O)N2C(C(=O)O)=C(SCCN=CN)C[C@H]12 |  | inactive: -8.48% [at 35.3 µM]
14 | Cc1c(F)cc2c(=O)c(C(=O)O)cn3c2c1CCC3C (stereo not given) |  | inactive: -3.32% [at 35.3 µM]
15 | CC(C)(N)C#N |  | inactive: -0.0689%
16 | Nc1ccn([C@H]2CC[C@@H](CO)O2)c(=O)n1 | inactive | 
17 | COc1cc(NC(=O)CC(C)=O)c(OC)cc1Cl | inactive | 
18 | O=C(Nc1ccc([N+](=O)[O-])cc1)Nc1ccc([N+](=O)[O-])cc1 | inconclusive: 26.8 µM [activator, single point] | 
19 | Cc1cccc(C)n1 |  | inactive: 1.36%
20 | ClCCOCCOCCCl | inconclusive: 24.5 µM [activator, single point] | 

Row | SMILES | Potency | cytotoxicity increase
21 | CC(=O)c1ccc2c(c1)CCCC2 |  | inactive: -0.181%
22 | CCC/C=C/CO |  | inactive: -1.59%
23 | Cc1cc(O)c(Cl)cc1C | active: 49 µM | 
24 | CC(C)(C)C1CCCCC1O (stereo not given) | inconclusive: 54.9 µM [activator, single point] | 
25 | C[C@]12CCC(=O)C=C1[C@@H]1C[C@@H]1[C@H]1[C@@H]3[C@@H]4C[C@@H]4[C@@]4(CCC(=O)O4)[C@@]3(C)CC[C@@H]12 |  | inactive: 6.12% [at 35.3 µM]
26 | CCOc1ccc2c(c1)C(C)CC(C)(C)N2 (stereo not given) | active: 43.6 µM | 
27 | O=C(OCCOCCOCCOC(=O)c1ccccc1)c1ccccc1 | inconclusive: 21.9 µM [activator, single point] | 
28 | CC/C(=C\C(=N/O)C(N)=O)C(C)[N+](=O)[O-] (stereo not given) |  | inactive: -11.3%
29 | CC(C)COC(=O)/C=C/c1ccccc1 | inconclusive: 61.7 µM [activator, single point] | 
30 | C=CC[N+](C)(C)CC=C | inconclusive: 61.7 µM [activator, single point] | 
31 | C[n+]1ccn(CCO)c1 | inconclusive: 44.8 µM [activator, partial curve, poor fit] | 
32 | C=C[Si]1(C)O[Si](C)(C=C)O[Si](C)(C=C)O[Si](C)(C=C)O1 (stereo not given) | inconclusive: 21.9 µM [activator, single point] | 
33 | c1ccc(CCNc2nc(-c3ccccc3)cs2)cc1 | inconclusive: 10.7 µM [activator, single point] | 
34 | O=C1CCC(=O)O1 |  | inactive: -7.46%
35 | COCCOCCOCCOCCOC |  | inactive: -2.41%
36 | CCCCN(C)C |  | inactive: 1.91%
37 | Cc1ccc(C(C)C)cc1O | inconclusive: 54.9 µM [activator, single point] | 
38 | CC(O)CN(CCCN(C)C)CCCN(C)C (stereo not given) |  | inactive: -5.71%
39 | O=C(c1ccc(Cl)cc1)c1ccc(Cl)cc1 | inconclusive: 21.9 µM [activator, single point] | 
40 | CCCCCCCCCC#N |  | inactive: 12%
